Measurements: PubChem BioAssay AID720542 (National Center for Advancing Translational Sciences (NCATS), 2013)
Among all 360,000 compounds or so, about 740 (0.21%) were called active. Inconclusive results, whose numbers are uncertain, are shown with a selection of clear calls. The call rests on the fitted dose curve; in most records, active means well fitted inhibition curve with a large enough effect; inconclusive means small, poorly fitted or top-dose-only effect; inactive means no such curve, though single readings can be large or run the other way. No potency is given beside an inconclusive call; the fits are too rough.

System: Plasmodium falciparum AMA1 (3D7) - RON2 peptide interaction
Test: qHTS for Inhibitors of AMA1-RON; Towards Development of Antimalarial Drug Lead: Primary Screen; further: nearly all actives have a fitted effect of over 45% in size;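 on activity change, negative = inhibition: 0% = vehicle wells and -100% = peptide control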
Details: AlphaScreen AMA1-biotinylated RON2 peptide binding; activity change, negative = inhibition: at 58.2 µM (top of the series) unless noted
In short: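 AMA1 (3D7) with his tag at 25 nM final met compounds first, then biotinylated RON2 peptide at 25 nM; detection used donor plus acceptor beads, 10 µg/mL apiece, read by AlphaScreen after 30 min at room temperature.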
Potency means the concentration at half of the fitted maximal effect; tags describe the fitted curve by direction and shape.

Row | SMILES | Potency | activity change, negative = inhibition
1 | C(=N\N1CCN(c2ccccn2)CC1)/c1cccc2ccccc12 | active: 14.1 µM | –
2 | CN(C(=O)C1CCOC1)c1nnc(-c2ccccn2)s1 (centres undefined) | – | inactive: -14.2%
3 | COc1ccc(OC)c(-c2csc(NC(=O)Cc3cccs3)n2)c1 | inconclusive [inhibitor, partial curve] | –
4 | O=C(COc1ccccc1)N1CCN(S(=O)(=O)c2cccs2)CC1 | – | inactive: 2.42%
5 | Cc1cc2c(=Cc3ccc(N(C)C)cc3)c3ccccc3n2[n+]1C | inconclusive [inhibitor, single point] | –
6 | CCC1(c2ccc(F)cc2)NC(=O)N(CC(=O)Nc2cccc(S(=O)(=O)N3CCCCC3)c2)C1=O (centres undefined) | – | inactive: 2.09%
7 | Cc1cccc(C(=O)c2cn[nH]c2-c2ccc(C)cc2O)c1 | – | inactive: 80.5%
8 | CC(C(=O)NC1CCCCC1)N1CCN(C)CC1 (centres undefined) | inconclusive [inhibitor, partial curve] | –
9 | O=C1C(Nc2cccc(O)c2)=C(N2CCCCC2)C(=O)c2ccccc21 | inconclusive [inhibitor, single point] | –
10 | COc1ccc2[nH]c(=O)cc(C(=O)O)c2c1 | active: 22.4 µM | –
11 | Cc1cccc(C)c1-n1c(C)cc(/C=N\Nc2ccc([N+](=O)[O-])cn2)c1C | inconclusive [inhibitor, single point] | –
12 | CC(=O)n1nc(-c2ccccc2)nc1NCc1ccc(N(C)C)cc1 | active: 8.91 µM | –
13 | Cc1cc(Cl)ccc1NNC(=O)c1c(C)noc1C | inconclusive [inhibitor, single point] | –
14 | CN(C)S(=O)(=O)c1cccc(C(=O)OCC(=O)Nc2sccc2C(N)=O)c1 | – | inactive: -4.89%
15 | N#C/C(=C\c1cccn1S(=O)(=O)c1cccc([N+](=O)[O-])c1)S(=O)(=O)c1ccc(F)cc1 | inconclusive [inhibitor, partial curve] | –
16 | CCCCS/C(=C(/C#N)C(N)=O)c1cc2c([nH]1)CCCC2 | inconclusive [inhibitor, partial curve, poor fit] | –
17 | CN(C)CCCCOc1cccc(Br)c1 | inconclusive [inhibitor, single point] | –
18 | CCC(=O)Nc1ccc(C(=O)CSc2nnc(CNc3ccc(Cl)cc3)o2)cc1OC | inconclusive [inhibitor, single point] | –
19 | Cc1nn(CC(O)CN2c3ccccc3Sc3ccccc32)c(C)c1Br (centres undefined) | inconclusive [inhibitor, single point] | –
20 | CCN1C(=O)[C@H]2[C@@H](c3ccc(C(F)(F)F)cc3)N[C@]3(CCCN(Cc4ccccc4)C3=O)[C@H]2C1=O | inconclusive [inhibitor, partial curve, poor fit] | –
21 | CCn1c2ccccc2c2cc(CNCc3ccc(OC)cc3OC)ccc21 | inconclusive [inhibitor, single point] | –
22 | Cc1ccc(CNc2nc(NCc3ccccc3)nc3ccsc23)c(C)c1 | inconclusive [inhibitor, partial curve] | –

Row | SMILES | Potency | activity change, negative = inhibition
23 | O=C(c1cc(-c2ccccc2)nc2ccccc12)N1CCCc2ccccc21 | inconclusive [inhibitor, partial curve] | –
24 | O=C1/C(=C/c2ccco2)SC(=S)N1CC1CCCO1 (centres undefined) | inconclusive [inhibitor, partial curve] | –
25 | CCCCC(c1nnnn1CCOC)N1CCN(C(=O)c2ccco2)CC1 (centres undefined) | inconclusive [inhibitor, single point] | –
26 | C/C=C(\C)C(=O)OC1CC(C)(C)C[C@H]2C3=CC[C@@H]4[C@@]5(C)CCC(O[C@@H]6O[C@@H](C(=O)O)[C@@H](O)C(O[C@@H]7OC[C@H](O)[C@@H](O)[C@@H]7O[C@@H]7OC(CO)C(O)[C@@H](O)[C@@H]7O)C6O[C@@H]6OC(CO)C(O)C(O)C6O)[C@@](C)(CO)[C@@H]5CC[C@]4(C)[C@]3(C)CC(O)[C@@]12CO (some centres undefined) | – | inactive: -4.81%
27 | COc1cc(Nc2ccc(S(=O)(=O)N3CCN(C)CC3)cc2[N+](=O)[O-])cc(OC)c1 | inconclusive [inhibitor, partial curve] | –
28 | CCCCn1c(CN2CCN(c3cccc(Cl)c3)CC2)nc2c1c(=O)[nH]c(=O)n2C | – | inactive: -2.79%
29 | COC(=O)C1=NNC2(c3ccc(Cl)cc3)C(=O)N(c3ccccc3)C(=O)C12 (centres undefined) | inconclusive [inhibitor, partial curve] | –
30 | Cc1cc(N2CCN(C)CC2)ccc1NC(=O)c1cccc(S(=O)(=O)N2CCc3ccccc3C2)c1 | inconclusive [inhibitor, partial curve] | –
31 | CN(C)S(=O)(=O)c1ccc(NC(=O)CN2CCCc3ccccc32)cc1 | inconclusive [inhibitor, partial curve] | –
32 | Cc1cccc(N(C(=O)c2csnn2)C(C(=O)NC2CCCCC2)c2ccncc2)c1 (centres undefined) | inconclusive [inhibitor, single point] | –
33 | O=C(N/N=C/c1c[nH]c2ccccc12)c1cc(-c2ccc3ccccc3c2)n[nH]1 | – | inactive: 3.69%
34 | O=C(CNC(=O)c1ccccc1O)N/N=C/c1ccccn1 | inconclusive [inhibitor, single point] | –
35 | COc1cccc(NC(=O)Cn2c3ccc(F)cc3c3nc4n(c(=O)c32)CCCS4)c1 | – | inactive: -2.16%
36 | CC(=O)Nc1ccc(Nc2c3c4c(cccc4n(C)c2=O)C(=O)c2ccccc2-3)cc1 | inconclusive [inhibitor, partial curve, poor fit] | –
37 | O=C(Oc1cc(=O)oc2ccccc12)c1ccco1 | inconclusive [inhibitor, partial curve, poor fit] | –
38 | COc1ccc(C2CC(C)(c3ccc(OC)cc3)Nc3ccccc3N2)cc1 (centres undefined) | inconclusive [inhibitor, partial curve] | –
39 | COc1ccc(C(=O)Nc2ccc(NC(=O)c3cccc(OC)c3)cn2)cc1 | – | inactive: -0.148%
40 | N#Cc1nc(COc2ccccc2)oc1N1CCC(Cc2ccccc2)CC1 | inconclusive [inhibitor, partial curve] | –
41 | CCN(CC)S(=O)(=O)c1cc(NC(=O)COC(=O)CCC(=O)c2cccs2)ccc1C | inconclusive [inhibitor, partial curve] | –
42 | O=C(CSc1nc2ccccc2s1)NCc1ccc2c(c1)OCO2 | – | inactive: -9.39%
43 | Cc1cc(NC2C3CC4CC(C3)CC2C4)n2nnnc2n1 (centres undefined) | inconclusive [inhibitor, single point] | –
44 | O=C(CSc1nnc(NC(=O)c2c(F)cccc2F)s1)NCc1ccco1 | – | inactive: -1.26%

Row | SMILES | Potency | activity change, negative = inhibition
45 | COc1ccc(C(=O)COC(=O)[C@H](C)Nc2ccc(C(F)(F)F)cc2[N+](=O)[O-])cc1 | inconclusive [inhibitor, full curve] | –
46 | COc1ccc(-c2oc3ncnc(NCCCN4CCOCC4)c3c2-c2ccc(OC)cc2)cc1 | inconclusive [inhibitor, partial curve] | –
47 | CCOC(=O)C1(CCc2ccccc2)CCN(C2CCSCC2)CC1 | inconclusive [inhibitor, full curve, poor fit] | –
48 | COc1cc2c(cc1OC)C(c1ccc([N+](=O)[O-])cc1)NC(=O)C2 (centres undefined) | – | inactive: 13.5%
49 | CCOc1cc(N2CCOCC2)c(OCC)cc1NC(=O)Cn1cnnn1 | inconclusive [inhibitor, single point] | –
50 | Cc1cc(Br)cn2c(Cc3ccccc3)c(-c3ccco3)nc12 | inconclusive [inhibitor, partial curve] | –
51 | Cc1oc(CSCC2CCCO2)cc1C(=O)O (centres undefined) | – | inactive: -8.77%
52 | COc1cccc(N2C(=O)C3CCCN3C2=S)c1 (centres undefined) | inconclusive [inhibitor, single point] | –
53 | Cc1ccc(NC(=O)COC(=O)CNC(=O)c2ccc3ccccc3c2)c([N+](=O)[O-])c1 | inconclusive [inhibitor, single point] | –
54 | COC(=O)C1=C(C)N(C(C)c2ccccc2)C(=O)/C1=C\c1ccco1 (centres undefined) | inconclusive [inhibitor, partial curve] | –
55 | CCC(CC)C(=O)OCC(=O)Nc1cc(OC)c([N+](=O)[O-])cc1C | inconclusive [inhibitor, partial curve] | –
56 | COC(=O)c1cc(C)nc2c1C(=O)C(=O)C=C2N1CCOCC1 | inconclusive [inhibitor, single point] | –
57 | O=C(CN1C(=O)/C(=C2/SC(=S)N(CCS(=O)(=O)O)C2=O)c2ccccc21)Nc1cccc(C(F)(F)F)c1 | inconclusive [inhibitor, single point] | –
58 | CN(C)c1ccc(-c2csc(C(O)(c3ccccc3)C(F)(F)F)n2)cc1 (centres undefined) | inconclusive [inhibitor, partial curve] | –
59 | CCOc1ccc(OCCC(=O)OCC(=O)Nc2ccc(C)c(S(=O)(=O)N3CCCCC3)c2)cc1 | inconclusive [inhibitor, partial curve, poor fit] | –
60 | O=C(COC(=O)c1cc(=O)[nH]c(=O)[nH]1)Nc1cccc(Cl)c1 | inconclusive [inhibitor, full curve, poor fit] | –
61 | CCCn1c(=NC(=O)c2ccco2)c(C(=O)OCC)cc2c(=O)n3ccccc3nc21 | – | inactive: 0.191%
62 | c1ccc(-c2nc(N3CCOCC3)c3ccccc3n2)nc1 | – | inactive: 106%
63 | Cc1ccc2c(ccc(=S)n2C)c1 | inconclusive [inhibitor, partial curve, poor fit] | –
64 | Cc1ccc(C(=O)N2CCN(c3ccc([N+](=O)[O-])cc3-n3cccc3)CC2)cc1 | inconclusive [inhibitor, partial curve] | –
